Changes are numbered by the printed parent chain. Values belong to the binder of their own block, whether it stands above or below them.
Tests used:
[1] = target: T1, human CD19 (recombinant, form not given) (human, UniProt P15391 20-291, limits assumed); experiment: SPR Biacore T200, biotinylated human 4-1BB Fc(kih) on SA chip, construct 200 nM then human CD19 500 nM
T1 construct: also called huCD19
T1 sequence (looked up): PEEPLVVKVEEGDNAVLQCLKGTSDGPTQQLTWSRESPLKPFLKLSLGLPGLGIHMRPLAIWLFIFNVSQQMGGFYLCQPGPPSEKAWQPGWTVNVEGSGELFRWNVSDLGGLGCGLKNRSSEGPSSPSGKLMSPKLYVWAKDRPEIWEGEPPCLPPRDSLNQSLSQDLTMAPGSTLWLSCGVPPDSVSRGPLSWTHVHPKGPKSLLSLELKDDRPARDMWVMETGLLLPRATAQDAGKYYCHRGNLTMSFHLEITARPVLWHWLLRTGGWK

[2] = target: T2, human 4-1BB (CD137) on cells (human, UniProt Q07011 24-255); experiment: flow cytometry on activated human PBMC, 4-1BB+ CD4+ T cells
T2 construct: whole, on cells; also called 4-1BB+CD8+; 4-1BB+CD4+

[3] = target: T2, human 4-1BB (CD137) on cells; experiment: flow cytometry on activated human PBMC, 4-1BB+ CD8+ T cells
[4] = target: T3, human fibroblast activation protein (FAP) on cells (human, UniProt Q12884 1-760); experiment: flow cytometry, FAP-expressing MV-3 cells, PE anti-human IgG Fc secondary
T3 construct: also called human FAP; huFAP

[5] = target: T3, human fibroblast activation protein …; experiment: flow cytometry, FAP-expressing WM-266-4 cells, PE anti-human IgG Fc secondary
[6] = target: T3, human fibroblast activation protein …; experiment: flow cytometry on WM-266-4 cells
[7] = target: T4, human OX40 on cells (human, UniProt P43489 29-277); experiment: flow cytometry on activated human PBMC, OX40+ CD4+ or CD8+ T cells
T4 construct: whole, on cells
T4 sequence (looked up): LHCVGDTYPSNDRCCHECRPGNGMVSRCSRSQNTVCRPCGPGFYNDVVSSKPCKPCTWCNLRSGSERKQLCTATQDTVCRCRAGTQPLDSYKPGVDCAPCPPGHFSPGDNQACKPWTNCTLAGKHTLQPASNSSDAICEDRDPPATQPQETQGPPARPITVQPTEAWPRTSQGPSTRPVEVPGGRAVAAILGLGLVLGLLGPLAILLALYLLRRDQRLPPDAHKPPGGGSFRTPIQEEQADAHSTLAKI

binding result [1]: binds
B1: monovalent CD19(8B8-2B11) targeted split trimeric 4-1BB ligand (71-248) Fc (kih) fusion containing CH-CL cross with charged residues (construct 4.4) (Fc fusion)
chain 1: REGPELSPDDPAGLLDLRQGMFAQLVAQNVLLIDGPLSWYSDPGLAGVSLTGGLSYKEDTKELVVAKAGVYYVFFQLELRRVVAGEGSGSVSLALHLQPLRSAAGAAALALTVDLPPASSEARNSAFGFQGRLLHLSAGQRLGVHLHTEARARHAWQLTQGATVLGLFRVTPEIPAGLGGGGSGGGGSREGPELSPDDPAGLLDLRQGMFAQLVAQNVLLIDGPLSWYSDPGLAGVSLTGGLSYKEDTKELVVAKAGVYYVFFQLELRRVVAGEGSGSVSLALHLQPLRSAAGAAALALTVDLPPASSEARNSAFGFQGRLLHLSAGQRLGVHLHTEARARHAWQLTQGATVLGLFRVTPEIPAGLGGGGSGGGGSRTVAAPSVFIFPPSDRKLKSGTASVVCLLNNFYPREAKVQWKVDNALQSGNSQESVTEQDSKDSTYSLSSTLTLSKADYEKHKVYACEVTHQGLSSPVTKSFNRGE[no letters for human IgG1 Fc with changes]
chain 2: REGPELSPDDPAGLLDLRQGMFAQLVAQNVLLIDGPLSWYSDPGLAGVSLTGGLSYKEDTKELVVAKAGVYYVFFQLELRRVVAGEGSGSVSLALHLQPLRSAAGAAALALTVDLPPASSEARNSAFGFQGRLLHLSAGQRLGVHLHTEARARHAWQLTQGATVLGLFRVTPEIPAGLGGGGSGGGGSASTKGPSVFPLAPSSKSTSGGTAALGCLVEDYFPEPVTVSWNSGALTSGVHTFPAVLQSSGLYSLSSVVTVPSSSLGTQTYICNVNHKPSNTKVDEKVEPKSC
heavy: QVQLVQSGAEVKKPGASVKVSCKASGYTFTDYIMHWVRQAPGQGLEWMGYINPYNDGSKYTEKFQGRVTMTSDTSISTAYMELSRLRSDDTAVYYCARGTYYYGPQLFDYWGQGTTVTVSSASTKGPSVFPLAPSSKSTSGGTAALGCLVKDYFPEPVTVSWNSGALTSGVHTFPAVLQSSGLYSLSSVVTVPSSSLGTQTYICNVNHKPSNTKVDKKVEPKSCDKTHTCPPCPAPEAAGGPSVFLFPPKPKDTLMISRTPEVTCVVVDVSHEDPEVKFNWYVDGVEVHNAKTKPREEQYNSTYRVVSVLTVLHQDWLNGKEYKCKVSNKALGAPIEKTISKAKGQPREPQVCTLPPSRDELTKNQVSLSCAVKGFYPSDIAVEWESNGQPENNYKTTPPVLDSDGSFFLVSKLTVDKSRWQQGNVFSCSVMHEALHNHYTQKSLSLSPGK
light: DIVMTQTPLSLSVTPGQPASISCKSSQSLETSTGTTYLNWYLQKPGQSPQLLIYRVSKRFSGVPDRFSGSGSGTDFTLKISRVEAEDVGVYYCLQLLEDPYTFGQGTKLEIKRTVAAPSVFIFPPSDEQLKSGTASVVCLLNNFYPREAKVQWKVDNALQSGNSQESVTEQDSKDSTYSLSSTLTLSKADYEKHKVYACEVTHQGLSSPVTKSFNRGEC

EC50 [2]: 240 pM
EC50 [3]: 330 pM
EC50 (read off the curve) [4]: ~600 pM
EC50 (read off the curve) [5]: ~400 pM
B2: bivalent FAP(4B9)-targeted human 4-1BB ligand (71-248) containing Fc (kih) fusion molecule Construct 2.6 (Fc fusion)
heavy 1: EVQLLESGGGLVQPGGSLRLSCAASGFTFSSYAMSWVRQAPGKGLEWVSAIIGSGASTYYADSVKGRFTISRDNSKNTLYLQMNSLRAEDTAVYYCAKGWFGGFNYWGQGTLVTVSSASTKGPSVFPLAPSSKSTSGGTAALGCLVKDYFPEPVTVSWNSGALTSGVHTFPAVLQSSGLYSLSSVVTVPSSSLGTQTYICNVNHKPSNTKVDKKVEPKSCDKTHTCPPCPAPEAAGGPSVFLFPPKPKDTLMISRTPEVTCVVVDVSHEDPEVKFNWYVDGVEVHNAKTKPREEQYNSTYRVVSVLTVLHQDWLNGKEYKCKVSNKALGAPIEKTISKAKGQPREPQVCTLPPSRDELTKNQVSLSCAVKGFYPSDIAVEWESNGQPENNYKTTPPVLDSDGSFFLVSKLTVDKSRWQQGNVFSCSVMHEALHNHYTQKSLSLSPGGGGGSGGGGSREGPELSPDDPAGLLDLRQGMFAQLVAQNVLLIDGPLSWYSDPGLAGVSLTGGLSYKEDTKELVVAKAGVYYVFFQLELRRVVAGEGSGSVSLALHLQPLRSAAGAAALALTVDLPPASSEARNSAFGFQGRLLHLSAGQRLGVHLHTEARARHAWQLTQGATVLGLFRVTPEIPAGLGGGGSGGGGSREGPELSPDDPAGLLDLRQGMFAQLVAQNVLLIDGPLSWYSDPGLAGVSLTGGLSYKEDTKELVVAKAGVYYVFFQLELRRVVAGEGSGSVSLALHLQPLRSAAGAAALALTVDLPPASSEARNSAFGFQGRLLHLSAGQRLGVHLHTEARARHAWQLTQGATVLGLFRVTPEIPAGL
heavy 2: EVQLLESGGGLVQPGGSLRLSCAASGFTFSSYAMSWVRQAPGKGLEWVSAIIGSGASTYYADSVKGRFTISRDNSKNTLYLQMNSLRAEDTAVYYCAKGWFGGFNYWGQGTLVTVSSASTKGPSVFPLAPSSKSTSGGTAALGCLVKDYFPEPVTVSWNSGALTSGVHTFPAVLQSSGLYSLSSVVTVPSSSLGTQTYICNVNHKPSNTKVDKKV[no letters for human IgG1 Fc with changes]GGGGSGGGGSREGPELSPDDPAGLLDLRQGMFAQLVAQNVLLIDGPLSWYSDPGLAGVSLTGGLSYKEDTKELVVAKAGVYYVFFQLELRRVVAGEGSGSVSLALHLQPLRSAAGAAALALTVDLPPASSEARNSAFGFQGRLLHLSAGQRLGVHLHTEARARHAWQLTQGATVLGLFRVTPEIPAGL
light: EIVLTQSPGTLSLSPGERATLSCRASQSVTSSYLAWYQQKPGQAPRLLINVGSRRATGIPDRFSGSGSGTDFTLTISRLEPEDFAVYYCQQGIMLPPTFGQGTKVEIKRTVAAPSVFIFPPSDEQLKSGTASVVCLLNNFYPREAKVQWKVDNALQSGNSQESVTEQDSKDSTYSLSSTLTLSKADYEKHKVYACEVTHQGLSSPVTKSFNRGEC

EC50 [6]: 6900 pM
EC50 [7]: 150 pM
B3: monovalent FAP(28H1) targeted split trimeric OX40 ligand Fc (kih) fusion containing CH-CL cross with charged residues (construct 6.1) (Fc fusion)
chain 1: QVSHRYPRIQSIKVQFTEYKKEKGFILTSQKEDEIMKVQDNSVIINCDGFYLISLKGYFSQEVDISLHYQKDEEPLFQLKKVRSVNSLMVASLTYKDKVYLNVTTDNTSLDDFHVNGGELILIHQNPGEFCVLGGGGSGGGGSQVSHRYPRIQSIKVQFTEYKKEKGFILTSQKEDEIMKVQDNSVIINCDGFYLISLKGYFSQEVDISLHYQKDEEPLFQLKKVRSVNSLMVASLTYKDKVYLNVTTDNTSLDDFHVNGGELILIHQNPGEFCVLGGGGSGGGGSRTVAAPSVFIFPPSDRKLKSGTASVVCLLNNFYPREAKVQWKVDNALQSGNSQESVTEQDSKDSTYSLSSTLTLSKADYEKHKVYACEVTHQGLSSPVTKSFNRGE[no letters for human IgG1 Fc with changes]
chain 2: QVSHRYPRIQSIKVQFTEYKKEKGFILTSQKEDEIMKVQDNSVIINCDGFYLISLKGYFSQEVDISLHYQKDEEPLFQLKKVRSVNSLMVASLTYKDKVYLNVTTDNTSLDDFHVNGGELILIHQNPGEFCVLGGGGSGGGGSASTKGPSVFPLAPSSKSTSGGTAALGCLVEDYFPEPVTVSWNSGALTSGVHTFPAVLQSSGLYSLSSVVTVPSSSLGTQTYICNVNHKPSNTKVDEKVEPKSC
heavy: EVQLLESGGGLVQPGGSLRLSCAASGFTFSSHAMSWVRQAPGKGLEWVSAIWASGEQYYADSVKGRFTISRDNSKNTLYLQMNSLRAEDTAVYYCAKGWLGNFDYWGQGTLVTVSSASTKGPSVFPLAPSSKSTSGGTAALGCLVKDYFPEPVTVSWNSGALTSGVHTFPAVLQSSGLYSLSSVVTVPSSSLGTQTYICNVNHKPSNTKVDKKVEPKSCDKTHTCPPCPAPEAAGGPSVFLFPPKPKDTLMISRTPEVTCVVVDVSHEDPEVKFNWYVDGVEVHNAKTKPREEQYNSTYRVVSVLTVLHQDWLNGKEYKCKVSNKALGAPIEKTISKAKGQPREPQVCTLPPSRDELTKNQVSLSCAVKGFYPSDIAVEWESNGQPENNYKTTPPVLDSDGSFFLVSKLTVDKSRWQQGNVFSCSVMHEALHNHYTQKSLSLSPGK
light: B2 light with T30S, S31R, N50I, V51G, G52A, R54T, I93Q, M94V, L95I
notes: also called FAP-OX40L; FAP targeted OX40 ligand Fc (kih) construct
